Reference: PMC4336329 (PLoS ONE, 2015)
The whole screen tested about 310,000 compounds, of which about 14,000 (4.5%) showed an effect of 50% or more. The effect is printed as a negative number. This is one part of the list.

Biological target: human ether-à-go-go-related gene (hERG) potassium channel (human, UniProt Q12809)
Test: primary screen, population patch clamp on CHO cells stably expressing hERG
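Note: peak tail current of the secondary pulse compared with the same well before compound.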

Chain of human ether-à-go-go-related gene (hERG) potassium channel (Q12809 whole entry, looked up): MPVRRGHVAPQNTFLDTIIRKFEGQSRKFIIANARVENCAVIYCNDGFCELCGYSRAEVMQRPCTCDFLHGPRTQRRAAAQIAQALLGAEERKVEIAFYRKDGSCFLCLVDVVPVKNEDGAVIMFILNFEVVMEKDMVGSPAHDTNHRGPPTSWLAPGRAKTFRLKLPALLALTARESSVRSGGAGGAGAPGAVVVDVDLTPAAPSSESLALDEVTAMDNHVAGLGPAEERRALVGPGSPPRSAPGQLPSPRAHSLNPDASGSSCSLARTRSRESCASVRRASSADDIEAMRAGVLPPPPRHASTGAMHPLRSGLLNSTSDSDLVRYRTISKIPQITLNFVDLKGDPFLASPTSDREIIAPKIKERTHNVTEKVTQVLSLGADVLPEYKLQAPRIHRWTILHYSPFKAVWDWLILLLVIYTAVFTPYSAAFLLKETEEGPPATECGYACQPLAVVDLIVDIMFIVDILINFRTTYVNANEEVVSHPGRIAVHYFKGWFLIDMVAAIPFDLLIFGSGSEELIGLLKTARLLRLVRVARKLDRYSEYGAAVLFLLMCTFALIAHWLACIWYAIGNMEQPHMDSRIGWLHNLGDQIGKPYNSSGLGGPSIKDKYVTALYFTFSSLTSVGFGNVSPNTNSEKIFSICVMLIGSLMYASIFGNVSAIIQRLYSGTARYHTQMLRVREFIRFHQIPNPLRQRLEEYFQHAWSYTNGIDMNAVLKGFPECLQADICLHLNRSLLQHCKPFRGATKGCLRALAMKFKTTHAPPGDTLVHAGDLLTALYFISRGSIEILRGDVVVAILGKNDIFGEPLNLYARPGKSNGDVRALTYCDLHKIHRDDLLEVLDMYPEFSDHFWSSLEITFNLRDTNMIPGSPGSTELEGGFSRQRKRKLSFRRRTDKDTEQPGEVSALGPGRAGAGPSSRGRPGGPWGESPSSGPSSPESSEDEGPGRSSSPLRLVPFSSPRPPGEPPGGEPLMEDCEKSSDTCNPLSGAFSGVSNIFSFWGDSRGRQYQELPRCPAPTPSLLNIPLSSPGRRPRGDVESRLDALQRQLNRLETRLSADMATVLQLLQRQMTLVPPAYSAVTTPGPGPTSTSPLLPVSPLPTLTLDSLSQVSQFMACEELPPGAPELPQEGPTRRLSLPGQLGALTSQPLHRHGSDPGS

Compound | hERG current change (%, negative = inhibition) at 10uM
Cc1ccc(NC(=O)/C(=C\c2cccnc2)NC(=O)c2ccccc2)cc1 | -46%
CCOC(=O)N1CCN(C(=O)c2ccccc2SCC(=O)NCC2CCCCC2)CC1 | -27.9%
O=C(CCCc1nc(-c2ccc(Cl)cc2)no1)NC1CCCCC1 | 20.2%
COc1cc(/C=C/c2nc3ccccc3c(=O)[nH]2)ccc1OC(F)F | 11.3%
CCCn1c(O)c(/C=C2\C=NN=C2c2ccccc2)sc1=S | 7.93%
CN(C)/C=C1/C=C(c2ccccc2)OC1=O | 12%
Cc1cnn(-c2cc(Oc3ccccc3)ncn2)c1 | -11.8%
O=C(C1CCN(S(=O)(=O)N2CCOCC2)CC1)N1CCOCC1 | -6.69%
O=C(/C=C/c1ccccc1)Nc1cccnc1Oc1ccccc1F | -1.99%
Cc1nc(CN(C)C(=O)c2cc(COc3c(F)cccc3F)on2)cs1 | 11.5%
CCN1/C(=C/C=C/C=C/C=C/c2sc3ccccc3[n+]2CC)Sc2ccccc21.[I-] | -49.5%
CCC(=O)Nc1ccccc1C(=O)OCC(=O)Nc1ccc(S(N)(=O)=O)cc1 | -2.28%
COCCCNC(=S)NC(=O)c1ccc([N+](=O)[O-])cc1 | -8.65%
CCc1cc(=O)oc2cc(OC(=O)c3ccco3)ccc12 | 15.5%
COc1cccc(N2CCN(S(=O)(=O)c3ccc4nc(-c5ccccc5)[nH]c4c3)CC2)c1 | 12.2%
CCOC(=O)C1(Cc2cccc(Cl)c2)CCCN(C(=O)c2c(CC)noc2C)C1 (centres unmarked) | -16.2%
COc1ccc(C(C(=O)NC2CCCC2)N(CCC(C)C)C(=O)CCC(=O)Nc2cc(C)on2)cc1 (centres unmarked) | -15.9%
COc1ccc(NC(=O)/C=C/c2cc(Br)ccc2OC)cc1 | 20%
Cc1onc(-c2ccccc2)c1C(=O)Nc1nnc(CC(C)(C)C)s1 | 10%
CCN(CC)C(=O)CSc1nc(N)c(-c2ccccc2)c(=O)[nH]1 | 8.53%
CS(=O)(=O)N(CC(=O)NCC1CCCO1)c1cc(Cl)ccc1Cl (centres unmarked) | 9.81%
O=C(CCC(=O)OCCCC(F)(F)C(F)(F)F)Nc1ccccc1 | 13.5%

Compound | hERG current change (%, negative = inhibition) at 10uM
Cc1[nH]n(-c2ccc([N+](=O)[O-])cc2)c(=O)c1C=NCCc1c(C)[nH]c2ccccc12 | 1.38%
COc1ccc(C(=O)NC(=S)NNC(=O)c2ccc(O)cc2)cc1[N+](=O)[O-] | 22.2%
NS(=O)(=O)c1ccc(CCNC(=O)CCNS(=O)(=O)c2ccccc2C(F)(F)F)cc1 | 9.03%
CC12CCC(C(=O)Nc3cccc(Cl)c3)(C(Br)C1=O)C2(C)C (centres unmarked) | -0.0939%
CC(O)C1CCC2C3CC[C@H]4CC(O)CCC4(C)C3CC3(OCCO3)C12C (some centres unmarked) | -2.52%
O=C(NCCSCc1ccco1)Nc1cccc(Cl)c1 | -7.92%
CCC(C)[C@H](NC(=O)NC1CCCc2ccccc21)C(=O)OC (some centres unmarked) | 5.19%
Cc1ccc(NC(=O)C[n+]2cc(-c3ccccc3)n3c2CCC3)cc1.[Cl-] | -15.2%
CCOc1cc2c(cc1OCC)C(c1ccc(F)cc1)NCC2 (centres unmarked) | -10%
CN(CC(=O)Nc1ccccc1Br)C(=O)CN(C)C1CCCCC1 | 7.12%
COc1ccccc1NS(=O)(=O)c1ccc(C)c(C(=O)NCC(c2ccco2)N(C)C)c1 (centres unmarked) | -4.16%
C=CCSc1nnc(NC(=O)CCN2C(=O)C3CC=CCC3C2=O)s1 (centres unmarked) | -22.8%
COc1ccc(CCNC(=O)CSc2nnc(CNC(=O)c3ccccc3F)o2)cc1OC | 7.62%
C#CCOCCOCCOCCNc1nc(N2CCN(C(=O)CCCCCCCCCCNC(=O)Cn3cc(CCCCCN)nn3)CC2)nc(N2CCN(C(=O)CCCCCCCCCCNC(=O)[C@@H]([C@H](C)O)n3cc(C)nn3)CC2)n1 | -22.5%
CCn1c(=O)c2ccccc2n(CC(=O)NC2CCCCC2)c1=O | 12.7%
CC(C)Oc1ccc(CNCCC2(C(C)C)CCOC(C)(C)C2)cc1 (centres unmarked) | -45.4%
O=C(c1ccccc1)N(Cc1ccc2c(c1)OCO2)Cc1nc2ccccc2c(=O)[nH]1 | -15.4%
CCN(CC)CCNC(=O)c1cccc(NC(=O)C(=O)c2cc(Br)ccc2NC(C)=O)c1 | -5.49%
O=c1c2ccccc2ncn1Cc1ccc2c(c1)OCO2 | -2.63%
Cc1ccc(N(C(=O)Cn2nnc(-c3ccccc3F)n2)C(C(=O)NC2CCCC2)c2ccncc2)cc1 (centres unmarked) | 5.87%
Cc1cc2cc(CNC(=O)c3ccc(S(=O)(=O)N4CCCC4)cc3)ccc2n1C | 12.1%
O=C(N/N=C/c1ccc(N2CCCC2)c([N+](=O)[O-])c1)c1cccnc1 | -15.5%

Compound | hERG current change (%, negative = inhibition) at 10uM
CC(C)CN(C(=O)CCC(=O)OCC(=O)NCCc1ccccc1)c1c(N)n(CC(C)C)c(=O)[nH]c1=O | -9.28%
CCOC(=O)c1c(NC(=O)CSc2nnc(C)c(=O)[nH]2)sc2c1CCC2 | -2.6%
Cc1[nH]c(=O)[nH]c(=O)c1S(=O)(=O)N1CCN(c2ccccc2)CC1 | 19%
COc1cc(OC)cc(C(=O)OCC(=O)NCCCc2ccccc2)c1 | 12.2%
CCOC(=O)N/N=C/C=C/c1ccccc1[N+](=O)[O-] | -4.87%
CCOc1ccc(S(=O)(=O)N2CCC(C(=O)NCC3CCCO3)CC2)cc1C (centres unmarked) | 0.744%
C=CCNc1nc(NCc2ccccc2)nc(OCC)n1 | -2.73%
Cn1cc(-c2nnc(-c3ccccc3)o2)c2ccccc21 | 14%
N/C(=N\c1nc(CSc2nnnn2-c2ccccc2)cc(=O)[nH]1)Nc1ccccc1 | 6.26%
COC(=O)CN1C(=O)COc2ccc(S(=O)(=O)N3CCCCCC3)cc21 | -7.44%
COc1ccccc1/C=C(/NC(=O)c1ccccc1)C(=O)NCCN1CCOCC1 | 15.5%
Cc1ccc(C(=O)NC(=S)Nn2cnnc2)cc1 | 16.3%
CCCCc1ccc(N=N/C(C(=O)Nc2ccccc2OC)=C(/C)O)cc1 | -8.51%
O=C(Nc1ccccc1)c1ccc(=O)n(Cc2ccc(F)c(F)c2)c1 | -8.35%
COC(=O)[C@@]12CCCCN1[C@H](c1ccc(-c3ccc4c(c3)OCO4)c(OC)c1)[C@@H]1C(=O)N(C)C(=O)[C@@H]12.O=C(O)C(F)(F)F | 7.48%
Cc1ccc(S(=O)(=O)N2CCC(C(=O)NCCCn3ccnc3)CC2)cc1 | 23%
COc1ccc(CCNC(=O)C2CCN(S(=O)(=O)N3CC(C)CC(C)C3)CC2)cc1OC (centres unmarked) | -7.13%
CN(CC(=O)Nc1ccc(S(=O)(=O)N2CCCC2)cc1)Cc1ccc(Cl)cc1Cl | 10.8%
N#CC1=C(N)NC(=S)C(C(N)=O)C1c1ccccc1F (centres unmarked) | 10.4%
CC(C)c1cc(C(=O)N/N=C/c2cccnc2)n[nH]1 | -7.4%
COc1ccc(OCc2cccc(C(=O)NN)c2)cc1 | 2.35%
O=C(O)CCSc1nc2ccccc2n1CCOc1ccccc1 | -1.67%

Compound | hERG current change (%, negative = inhibition) at 10uM
Cc1ccc(CNC(=O)CCc2nc3ccccc3c(=O)[nH]2)cc1 | -7.2%
Cc1cccc(C)c1NC(=O)NC1CC2CCC(C1)N2Cc1cccs1 (centres unmarked) | 11.6%
O=C(NCCc1ccccc1)C(c1cccs1)N(C(=O)c1csnn1)C1CC1 (centres unmarked) | -41%
COc1ccc(CCNC(=O)c2cc(COc3c(C)cccc3C)on2)c(OC)c1 | 8.55%
CC1=C(N2CCN(c3ncccn3)CC2)CCC1=O | 3.43%
COc1cc(O)c(C(C)=O)c(CC(=O)O)c1 | -0.401%
N#CC1(NC(=O)CN2C(=O)NC3(CCCCCC3)C2=O)CCCCC1 | -0.951%
CCNC(=S)NNC(=O)C(c1ccccc1)c1ccccc1 | 3.38%
COc1cccc(CNC(=O)CN2C(=O)c3ccccc3S2(=O)=O)c1 | 6.27%
CCN(CC(=O)Nc1c(F)cccc1F)C(=O)/C=C/c1ccc(OCC#N)c(OC)c1 | -7.55%
CCOc1ccccc1N1CCN(C(=O)c2cc[n+]([O-])cc2)CC1 | 8.46%
Cc1no[n+]([O-])c1COc1ccccc1/C=N/n1nnnc1N | 6.18%
CCOc1cc(C(=O)NCC2CCCO2)cc(OCC)c1OCC (centres unmarked) | -1.4%
O=C(CSc1nnc(-c2cccnc2)s1)Nc1ccccc1 | 8.59%
CCC(OC(=O)C(NC(=O)c1ccccc1)c1ccccc1)C(=O)Nc1cc(C)on1 (centres unmarked) | 2.96%
Cc1cc(OC(=O)c2ccco2)c2c3c(c(=O)oc2c1)CCCC3 | -5.53%
Cc1ccc(C(=O)COc2cc(C)nc3nncn23)cc1 | 11.3%
COc1ccc(OCC(=O)OCC(=O)Nc2ccc(S(=O)(=O)N3CCCCC3)cc2)cc1 | 2.69%
Cc1cc(NC(=O)c2ccccc2)n(C(C)(C)C)n1 | 19.4%
O=C(c1ccc(N2CCCC2=O)cc1)N1CCN(c2ccccc2)CC1 | 13.3%
